# Some of the results follow.
# B1: PhoQ; a variant is named by its letters at X, in order, P23837 (parent)
# chain: MKKLLRLFFPLSLRVRFLLATAAVVLVLSLAYGMVALIGYSVSFDKTTFRLLRGESNLFYTLAKWENNKLHVELPENIDKQSPTMTLIYDENGQLLWAQRDVPWLMKMIQPDWLKSNGFHEIEADVNDTSLLLSGDHSIQQQLQEVREDDDDAEMTHSVAVNVYPATSRMPKLTIVVVDTIPVELKSSYMVWSWFIYVLSANLLLVIPLLWVAAWWSLRPIEALAKEVRELEEHNRELLNPATTRELTSLVRNLNRLLKSERERYDKYRTTLTDLTHSLKTPLXXLQXXLRSLRSEKMSVSDAEPVMLEQISRISQQIGYYLHRASMRGGTLLSRELHPVAPLLDNLTSALNKVYQRKGVNISLDISPEISFVGEQNDFVEVMGNVLDNACKYCLEFVEISARQTDEHLYIVVEDDGPGIPLSKREVIFDRGQRVDTLRPGQGVGLAVAREITEQYEGKIVAGESMLGGARMEVIFGRQHSAPKDE
# Variants of: B1
# Assay: enrichment ratio after two sorts for PhoP signalling (ratio (wild type AVST 3.29)); higher = more functional
# Conditions: with PhoP (E. coli)
row,Variant,enrichment ratio
1,YPTY,≤ 0.25
2,LLCP,≤ 0.25
3,AEPG,≤ 0.25
4,ERRC,≤ 0.25
5,LHPN,≤ 0.25
6,HQVA,≤ 0.25
7,ADKS,≤ 0.25
8,HTHQ,≤ 0.25
9,SVQA,≤ 0.25
10,AMTG,2.78
11,MILY,0.599
12,FNPP,≤ 0.25
13,EDHV,≤ 0.25
14,MNSH,≤ 0.25
15,PEHV,≤ 0.25
16,EPVH,≤ 0.25
17,EKVE,≤ 0.25
18,TRAG,≤ 0.25
19,PEFS,≤ 0.25
20,SSQQ,6.12
21,DTGN,≤ 0.25
22,KFWM,≤ 0.25
23,YSTP,≤ 0.25
24,DAPQ,≤ 0.25

row,Variant,enrichment ratio
1,WISI,≤ 0.25
2,STTG,7.62
3,ARQP,≤ 0.25
4,PWIG,≤ 0.25
5,ESVA,≤ 0.25
6,KFCQ,≤ 0.25
7,HPIV,≤ 0.25
8,FDCY,≤ 0.25
9,RIYD,≤ 0.25
10,MSFM,3.42
11,VSMP,≤ 0.25
12,NEPV,≤ 0.25
13,KTIF,0.425
14,KHRH,≤ 0.25
15,VGLK,≤ 0.25
16,KILD,≤ 0.25
17,IHTL,≤ 0.25
18,ISFR,≤ 0.25
19,IWTY,≤ 0.25
20,EVPQ,≤ 0.25
21,PSTF,≤ 0.25
22,KRPQ,≤ 0.25
23,QDTA,≤ 0.25
24,GICG,15.9

row,Variant,enrichment ratio
1,WRAG,≤ 0.25
2,HPQC,≤ 0.25
3,VYTT,≤ 0.25
4,RIRC,≤ 0.25
5,LGFC,0.715
6,RLDC,≤ 0.25
7,HLCM,≤ 0.25
8,GYYE,≤ 0.25
9,TETT,25.2
10,MEES,≤ 0.25
11,LEIN,≤ 0.25
12,GDTY,≤ 0.25
13,KQCV,≤ 0.25
14,IHLT,≤ 0.25
15,ICHH,≤ 0.25
16,RYCV,≤ 0.25
17,QKDL,≤ 0.25
18,IWME,≤ 0.25
19,EMAH,≤ 0.25
20,KTPS,≤ 0.25
21,SVHT,≤ 0.25
22,SCMD,1.02
23,DAPW,≤ 0.25
24,AEVP,≤ 0.25

row,Variant,enrichment ratio
1,LTSQ,≤ 0.25
2,DSVA,≤ 0.25
3,RWYA,≤ 0.25
4,AGSV,9.75
5,TIPG,≤ 0.25
6,FPMC,≤ 0.25
7,CFRH,≤ 0.25
8,MNSP,≤ 0.25
9,RSGK,≤ 0.25
10,FICC,≤ 0.25
11,NIFG,≤ 0.25
12,ACHG,≤ 0.25
13,DVYV,≤ 0.25
14,SHIG,≤ 0.25
15,FCDL,≤ 0.25
16,EWSH,≤ 0.25
17,GPVD,≤ 0.25
18,KPRT,≤ 0.25
19,NHFK,≤ 0.25
20,AFCD,≤ 0.25
21,ILLF,≤ 0.25
22,PMIR,≤ 0.25
23,WLLL,≤ 0.25
24,RETH,≤ 0.25

row,Variant,enrichment ratio
1,LSSP,≤ 0.25
2,LAVK,0.334
3,WTNP,≤ 0.25
4,IQKF,≤ 0.25
5,RPPD,≤ 0.25
6,FTQW,≤ 0.25
7,LWCF,≤ 0.25
8,KKYV,≤ 0.25
9,VLTF,≤ 0.25
10,PGAR,3.76
11,WKTY,≤ 0.25
12,LHYK,≤ 0.25
13,TAHH,8.19
14,EDYC,≤ 0.25
15,MRFY,≤ 0.25
16,ICML,6.1
17,LIYQ,≤ 0.25
18,IDYV,≤ 0.25
19,TGEH,≤ 0.25
20,SAFF,≤ 0.25
21,QYWE,≤ 0.25
22,DPRF,≤ 0.25
23,WHNH,≤ 0.25
24,HTDP,≤ 0.25

row,Variant,enrichment ratio
1,DMLV,≤ 0.25
2,TQPP,≤ 0.25
3,MGPT,≤ 0.25
4,PYYT,≤ 0.25
5,QLPS,≤ 0.25
6,AIGS,≤ 0.25
7,EVMY,≤ 0.25
8,NFPH,≤ 0.25
9,GQDV,≤ 0.25
10,HGHS,≤ 0.25
11,VEEN,≤ 0.25
12,WDEI,≤ 0.25
13,RFFT,≤ 0.25
14,WMWI,≤ 0.25
15,SIKI,≤ 0.25
16,PVRD,≤ 0.25
17,PDLG,≤ 0.25
18,WWII,≤ 0.25
19,AEYI,3.12
20,GQAR,≤ 0.25
21,PLYD,≤ 0.25
22,DVVN,≤ 0.25
23,FCEP,≤ 0.25
24,QVAL,0.584

row,Variant,enrichment ratio
1,VLRP,≤ 0.25
2,KDIW,≤ 0.25
3,SFEC,≤ 0.25
4,WCSK,≤ 0.25
5,AYPC,≤ 0.25
6,SFCN,0.422
7,ENTI,≤ 0.25
8,TKEI,≤ 0.25
9,KPQD,≤ 0.25
10,ERYM,≤ 0.25
11,SYLC,0.631
12,SANV,≤ 0.25
13,SFGC,≤ 0.25
14,YVDS,≤ 0.25
15,NLPE,≤ 0.25
16,AKDH,≤ 0.25
17,MGCG,≤ 0.25
18,IAPD,≤ 0.25
19,FFHV,≤ 0.25
20,SKWG,≤ 0.25
21,IGLV,6.7
22,KSYS,≤ 0.25
23,EDPP,≤ 0.25
24,MRVI,≤ 0.25

row,Variant,enrichment ratio
1,QRSH,≤ 0.25
2,RGID,≤ 0.25
3,GRWR,≤ 0.25
4,YMKA,≤ 0.25
5,GGIA,2.14
6,MCQP,≤ 0.25
7,FYPM,≤ 0.25
8,VYMW,≤ 0.25
9,ALPR,≤ 0.25
10,MRIH,≤ 0.25
11,AIRV,≤ 0.25
12,KFVM,≤ 0.25
13,GRNT,≤ 0.25
14,APSL,0.536
15,HWFW,≤ 0.25
16,RWCT,≤ 0.25
17,NRQD,≤ 0.25
18,VMCT,≤ 0.25
19,HPQP,≤ 0.25
20,TKKK,≤ 0.25
21,DNIW,≤ 0.25
22,DCAC,≤ 0.25
23,LKCH,≤ 0.25
24,DCHT,≤ 0.25

row,Variant,enrichment ratio
1,STRE,≤ 0.25
2,KVIM,≤ 0.25
3,FCTE,≤ 0.25
4,VDHP,≤ 0.25
5,FGLD,≤ 0.25
6,YFEP,≤ 0.25
7,DYCG,2.23
8,DAAE,≤ 0.25
9,LVWE,≤ 0.25
10,HYGK,≤ 0.25
11,QMMR,≤ 0.25
12,WHRT,≤ 0.25
13,VKVT,≤ 0.25
14,MFWW,≤ 0.25
15,HIYH,≤ 0.25
16,LKEP,≤ 0.25
17,YGKA,≤ 0.25
18,MNTE,≤ 0.25
19,HDET,≤ 0.25
20,LRQE,≤ 0.25
21,DDIF,≤ 0.25
22,IWNI,≤ 0.25
23,GCIY,≤ 0.25
24,AARM,≤ 0.25

row,Variant,enrichment ratio
1,RDRS,≤ 0.25
2,MLKY,≤ 0.25
3,DVSG,≤ 0.25
4,EGPH,≤ 0.25
5,YRPK,≤ 0.25
6,IECR,≤ 0.25
7,RKHG,≤ 0.25
8,WSQP,≤ 0.25
9,FNMS,≤ 0.25
10,RAHY,0.456
11,EYAV,≤ 0.25
12,GKLV,6.19
13,MRTM,0.463
14,PWLI,≤ 0.25
15,GDYW,≤ 0.25
16,QEAM,≤ 0.25
17,ALYS,≤ 0.25
18,TLVD,≤ 0.25
19,FRPY,≤ 0.25
20,YFNR,≤ 0.25
21,AVPF,≤ 0.25
22,SDAC,1.35
23,PELP,≤ 0.25
24,IHHT,≤ 0.25

row,Variant,enrichment ratio
1,SVPK,≤ 0.25
2,KGNI,≤ 0.25
3,AYMF,≤ 0.25
4,GRVS,≤ 0.25
5,SGKY,≤ 0.25
6,NHER,≤ 0.25
7,KLEP,≤ 0.25
8,DNFE,≤ 0.25
9,WRLW,≤ 0.25
10,YYSH,≤ 0.25
11,HPIQ,≤ 0.25
12,ETEE,≤ 0.25
13,WFWE,≤ 0.25
14,YEGK,≤ 0.25
15,WIVH,≤ 0.25
16,ISHW,≤ 0.25
17,EYYH,≤ 0.25
18,RRMR,≤ 0.25
19,RRIP,≤ 0.25
20,FNIT,≤ 0.25
21,LHFD,≤ 0.25
22,SAQP,≤ 0.25
23,TNQC,7.02
24,TFCG,5.19

row,Variant,enrichment ratio
1,KFPM,≤ 0.25
2,TMTA,11.2
3,RVTS,≤ 0.25
4,PGWG,≤ 0.25
5,MCHF,6.32
6,PISL,≤ 0.25
7,PTVG,≤ 0.25
8,MGFA,3.62
9,MSGD,≤ 0.25
10,ISHG,≤ 0.25
11,TFFE,≤ 0.25
12,YFSE,≤ 0.25
13,TTWW,≤ 0.25
14,PRWA,≤ 0.25
15,QIRD,≤ 0.25
16,IALQ,3.38
17,FKHR,≤ 0.25
18,GECL,5.03
19,KHIR,≤ 0.25
20,FQLY,3.42
21,TNVS,0.527
22,KSLG,≤ 0.25
23,KVPD,≤ 0.25
24,PYDM,≤ 0.25

row,Variant,enrichment ratio
1,LETR,≤ 0.25
2,GIKL,≤ 0.25
3,ERKV,≤ 0.25
4,RQTS,≤ 0.25
5,MGMN,≤ 0.25
6,ILWN,≤ 0.25
7,QMSC,≤ 0.25
8,VRCN,≤ 0.25
9,IIAG,≤ 0.25
10,VIHH,≤ 0.25
11,FYNW,≤ 0.25
12,VGII,≤ 0.25
13,ELIF,≤ 0.25
14,RTID,≤ 0.25
15,SYIG,11.3
16,RYMN,≤ 0.25
17,KGKY,≤ 0.25
18,FPLN,≤ 0.25

# Reference: a collection of fitness landscapes (doi:10.1126/science.1257360)
